# Experimental data taken from a collection of fitness landscapes (doi:10.1016/j.celrep.2020.107928).
# The full ranking holds about 81,000 sequences; the median of “one-hybrid fitness for binding parS DNA” is about -0.17, and the highest 2% start at about 0.51. The list shows a part of the results.
# B1: Caulobacter ParB omega fusion; a variant is named by its letters at X, in order, B8GW30 (parent)
# chain: MESVVVGEPGMSEGRRGLGRGLSALLGEVDAAPAQAPGEQLGGSREAPIEILQRNPDQPRRTFREEDLEDLSNSIREKGVLQPILVRPSPDTAGEYQIVAGERAWRAAQRAGLKTVPIMVRELDDLAVLEIGIIENVQRADLNVLEEALSYKVLMEKFERTQENIAQTIGKSXSHVANXMRLLXLPDEVQSYLVSGELTAXHARAIAAAADPVALAKQIIEGGLSVRETEALARKAPNLSAGKSKGGRPPRVKDTDTQALESDLSSVLGLDVSIDHRGSTGTLTITYATLEQLDDLCNRLTRGI
# Variants of: B1
# Assay: one-hybrid fitness for binding parS DNA (scaled: cognate 1, non-cognate 0); higher = stronger binding
# Settings: with parS DNA site
# Method in brief: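 In E. coli USO, a HIS3 reporter with its site placed 19 bp from the promoter was used to select Caulobacter ParB variants randomised at four specificity codons. Growth lasted 48 hours at 37°C on histidine-free M9 containing 0.1 mM IPTG and 5 mM 3-AT. Fitness was taken as the log change in variant-to-wild-type read ratio from Illumina sequencing of pre- and post-selection plasmids, rescaled between the non-cognate and cognate sites.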
row,Variant,one-hybrid fitness for binding parS DNA
1,EYQC,≤ 0.2
2,GFGV,≤ 0.2
3,RHLK,≤ 0.2
4,QFLC,≤ 0.2
5,DAHH,≤ 0.2
6,IRFR,≤ 0.2
7,AWPT,≤ 0.2
8,MHMT,≤ 0.2
9,RFIV,≤ 0.2
10,AGTG,≤ 0.2
11,CPHG,≤ 0.2
12,STKE,≤ 0.2
13,SSTG,≤ 0.2
14,DEHT,≤ 0.2
15,AWHM,0.283
16,ATCS,≤ 0.2
17,LCMS,≤ 0.2
18,EWTG,≤ 0.2
19,QKPE,≤ 0.2
20,GGQS,≤ 0.2
21,QCTR,≤ 0.2
22,DCNR,≤ 0.2
23,TGHN,≤ 0.2
24,HQRV,≤ 0.2
25,LTNV,≤ 0.2
26,NRRR,≤ 0.2

row,Variant,one-hybrid fitness for binding parS DNA
1,SWRS,≤ 0.2
2,QCPN,≤ 0.2
3,PIHR,≤ 0.2
4,PDNS,≤ 0.2
5,CWQL,≤ 0.2
6,NRIV,≤ 0.2
7,SAKV,≤ 0.2
8,GFDS,≤ 0.2
9,QHRR,≤ 0.2
10,AYND,≤ 0.2
11,YVLT,≤ 0.2
12,LVLH,≤ 0.2
13,EKSG,≤ 0.2
14,SCQR,≤ 0.2
15,LMVP,≤ 0.2
16,QHDC,≤ 0.2
17,KKKS,≤ 0.2
18,ITMT,≤ 0.2
19,EWDG,≤ 0.2
20,EAVM,≤ 0.2
21,YTGF,≤ 0.2
22,QKTY,≤ 0.2
23,FRQT,≤ 0.2
24,VGKI,≤ 0.2
25,SSAK,≤ 0.2
26,IKWW,0.205

row,Variant,one-hybrid fitness for binding parS DNA
1,WIHG,≤ 0.2
2,RMWS,1.05
3,TCYG,≤ 0.2
4,AWRM,≤ 0.2
5,LMRR,≤ 0.2
6,SKYP,≤ 0.2
7,RFLI,≤ 0.2
8,TWAR,≤ 0.2
9,MWVG,≤ 0.2
10,QIHI,≤ 0.2
11,LFVT,≤ 0.2
12,GLNV,≤ 0.2
13,SYNV,≤ 0.2
14,KRHT,≤ 0.2
15,ESRG,≤ 0.2
16,QLSH,≤ 0.2
17,PGSK,≤ 0.2
18,RCSM,0.327
19,VCRV,≤ 0.2
20,GRKR,≤ 0.2
21,CCTE,≤ 0.2
22,QSPH,≤ 0.2
23,YNVS,≤ 0.2
24,RLYC,1.01
25,VMEL,≤ 0.2
26,CRRY,≤ 0.2

row,Variant,one-hybrid fitness for binding parS DNA
1,RMQH,0.313
2,WFGS,≤ 0.2
3,SASQ,≤ 0.2
4,YRHV,≤ 0.2
5,EEHS,≤ 0.2
6,YLTR,≤ 0.2
7,AEFS,≤ 0.2
8,RQSH,≤ 0.2
9,HYLE,≤ 0.2
10,SACV,≤ 0.2
11,TNMG,≤ 0.2
12,GGNC,≤ 0.2
13,VEGC,≤ 0.2
14,TALL,≤ 0.2
15,CSNR,≤ 0.2
16,DGDR,≤ 0.2
17,CTTF,≤ 0.2
18,GDFY,≤ 0.2
19,EKPS,≤ 0.2
20,PHNN,≤ 0.2
21,CTHF,≤ 0.2
22,GECC,≤ 0.2
23,LHNK,≤ 0.2
24,PQPF,≤ 0.2
25,EQGT,≤ 0.2
26,YSSC,≤ 0.2

row,Variant,one-hybrid fitness for binding parS DNA
1,IQHS,≤ 0.2
2,VHQM,≤ 0.2
3,HNLT,≤ 0.2
4,DHCS,≤ 0.2
5,RYHG,1
6,RWER,≤ 0.2
7,TWTS,≤ 0.2
8,HIRS,≤ 0.2
9,LMPP,≤ 0.2
10,RANA,0.595
11,VPGY,≤ 0.2
12,RGTM,≤ 0.2
13,DPHI,≤ 0.2
14,APHW,≤ 0.2
15,KEVT,≤ 0.2
16,VPCF,≤ 0.2
17,DKRG,≤ 0.2
18,SPDV,≤ 0.2
19,LQDC,≤ 0.2
20,YVVT,≤ 0.2
21,VSNT,≤ 0.2
22,EKSC,≤ 0.2
23,TQWI,≤ 0.2
24,PPNL,≤ 0.2
25,EDTR,≤ 0.2
26,RVFE,≤ 0.2

row,Variant,one-hybrid fitness for binding parS DNA
1,TLYI,≤ 0.2
2,TCPV,≤ 0.2
3,NTVM,≤ 0.2
4,TMRS,≤ 0.2
5,TIFP,≤ 0.2
6,RHRR,≤ 0.2
7,QTEN,≤ 0.2
8,PPIV,≤ 0.2
9,VSQV,≤ 0.2
10,VLKA,≤ 0.2
11,TTQC,≤ 0.2
12,TTLG,≤ 0.2
13,KPRR,≤ 0.2
14,SKER,≤ 0.2
15,FSRG,≤ 0.2
16,PCPN,≤ 0.2
17,STDY,≤ 0.2
18,QLGV,≤ 0.2
19,VMSR,≤ 0.2
20,RHWY,0.317
21,VRQY,≤ 0.2
22,FDNL,≤ 0.2
23,VQCY,≤ 0.2
